{
  "source": "PubChem BioAssay AID504832",
  "about": "(National Center for Advancing Translational Sciences (NCATS), 2011)",
  "note": "In all, about 310,000 compounds went through this assay and about 18,000 (5.8%) were called active. The inconclusive results got no clear call from the source; some entries with a clear call stand among them for comparison. Calls come from the whole dose curve; as a rule, active = well fitted inhibition curve with a large enough effect; inconclusive = small, poorly fitted or top-dose-only effect, or another doubt; inactive = no such curve, though single readings can be large or run the other way. No potency is given beside an inconclusive call; the fits are too rough. % is set by controls: 0 for no effect and ±100 for the full control effect; potency is the fitted concentration of half-maximal effect; tags give direction and shape of the fitted curve.",
  "data": [
    {"assay": "Primary qHTS for delayed death inhibitors of the malarial parasite plastid, 48 hour incubation", "details": "P. falciparum luciferase growth in erythrocytes; series mostly up to 28.7 µM", "summary_of_the_method": "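First compound was added to culture medium, then infected red cells at 0.1% parasitemia and 2% hematocrit (final). After incubation at 37 C under 5% CO2, luciferase detection reagent was dispensed and light output recorded.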", "values": [
      {"smiles": "CCOc1ccc(Nc2nc(Cl)nc(N3CCN(c4ccc(OC)cc4)CC3)n2)cc1", "Potency": "inconclusive [inhibitor, single point]"},
      {"smiles": "CC1(C)Cc2c(C#N)c(N3CCN(C(=O)c4ccccc4)CC3)nc(Cc3ccccc3)c2CO1", "Potency": "inconclusive [inhibitor, single point]"},
      {"smiles": "COCCN(CCOC)c1cc(C)c(C#N)c2nc3ccccc3n12", "Potency": "inconclusive [inhibitor, single point]"},
      {"smiles": "O=C(COC(=O)CNS(=O)(=O)c1ccc2ccccc2c1)Nc1ccc2c(c1)OCO2", "Potency": "inactive"},
      {"smiles": "COc1ccc(NC(=O)c2cc3cc(C)ccc3n2C)c(OC)c1", "Potency": "inconclusive [inhibitor, full curve, poor fit]"},
      {"smiles": "CCCCN(C(=O)CSc1nnnn1-c1ccccc1OC)C1CCS(=O)(=O)C1", "note": "(centres undefined)", "Potency": "inconclusive [inhibitor, partial curve, poor fit]"},
      {"smiles": "CC[C@]1(c2ccccc2C)ON(c2ccccc2C(F)(F)F)C1=O", "Potency": "active: 2.62 µM"},
      {"smiles": "O=C(Nc1ccc(Oc2c(F)c(F)c(F)c(F)c2F)cc1)OC1CCN2Cc3ccccc3N=C12", "note": "(centres undefined)", "Potency": "inconclusive [inhibitor, full curve, poor fit]"},
      {"smiles": "COc1ccc(C2(C(=O)NCCCN(C)C)CCOCC2)cc1", "Potency": "inactive"},
      {"smiles": "C=C[C@H]1CN2CC[C@H]1C[C@H]2[C@H](O)c1ccnc2ccccc12", "Potency": "active: 0.147 µM"},
      {"smiles": "Cc1ccc(C(=O)N2CCC3(CC2)Oc2ccc(F)cc2C(=O)C32CC(c3ccc(Cl)cc3)=NO2)s1", "note": "(centres undefined)", "Potency": "inconclusive [inhibitor, full curve]"},
      {"smiles": "CC1CCCC(C)N1/N=C/c1ccc(C(=O)O)cc1", "note": "(centres undefined)", "Potency": "inactive"},
      {"smiles": "COc1cc(C#N)c(NC(=O)CN2CCN(CCO)CC2)cc1OC", "Potency": "inactive"},
      {"smiles": "CCCCOc1ccc(C(=O)N/C(=C/c2cccc([N+](=O)[O-])c2)C(=O)O)cc1", "Potency": "inactive"},
      {"smiles": "NC1=NC(c2cn(-c3ccccc3)nc2-c2cccs2)n2c(nc3ccccc32)N1", "note": "(centres undefined)", "Potency": "inconclusive [inhibitor, full curve]"},
      {"smiles": "COc1ccc(C2/C=C\\CN(C(=O)c3ccc(C)cc3)CC(=O)N2Cc2ccc(F)cc2)cc1", "note": "(centres undefined)", "Potency": "inconclusive [inhibitor, single point]"},
      {"smiles": "COc1cc(O)c(C(=O)O)c(-c2cc(O)c(O)cc2C)c1", "Potency": "inactive"},
      {"smiles": "CN(C(=O)COC(=O)c1cn(C)c2ccccc12)C1CCCCC1", "Potency": "inactive"},
      {"smiles": "O=C(C1=C[C@@H](c2ccc(C(F)(F)F)cc2)C[C@@H](OCc2ccc(CO)cc2)O1)N1CCN(Cc2ccc3c(c2)OCO3)CC1", "Potency": "inconclusive [inhibitor, full curve]"},
      {"smiles": "CCCN1CCN(C(=O)c2c(Cl)cnn2C)CC1", "Potency": "inactive"},
      {"smiles": "CC(=O)C1C(=O)c2c(cccc2[N+](=O)[O-])C1=Nc1cccc(Cl)c1", "note": "(centres undefined)", "Potency": "active: 1.47 µM"},
      {"smiles": "Cc1ccc(C2c3[nH]c4ccccc4c3C[C@H]3C(=O)N(c4ccccc4C(=O)N4CCC[C@H]4C(=O)O)C(=O)N23)cc1", "note": "(some centres undefined)", "Potency": "inconclusive [inhibitor, partial curve]"},
      {"smiles": "O=C(Nc1c(F)cc(F)cc1Br)c1cc(-c2ccccc2)on1", "Potency": "inactive"},
      {"smiles": "CC1(C)Cc2ccccc2C(NNC(=O)c2cccnc2)=N1", "Potency": "inactive"},
      {"smiles": "CCCCc1nc2cc(C(=O)N3CCCC3)ccc2o1", "Potency": "inactive"},
      {"smiles": "CCOc1ccc(CCNC(=O)c2cc3c(s2)CS(=O)(=O)C3)cc1OCC", "Potency": "inconclusive [inhibitor, single point]"},
      {"smiles": "Cc1nc2ccc(NC(=O)c3ccc(Cl)c([N+](=O)[O-])c3)cc2s1", "Potency": "inactive"},
      {"smiles": "COC(=O)c1ccc(NC(=O)CN2CCN(S(=O)(=O)c3cc(Cl)ccc3OC)CC2)cc1", "Potency": "inconclusive [inhibitor, single point]"},
      {"smiles": "COc1cc2c(cc1OC)/C(=C/C(=O)c1ccc(C)cc1)NCC2", "Potency": "inconclusive [inhibitor, single point]"},
      {"smiles": "Cc1cc(C(=O)CCC(=O)Nc2ccc(S(N)(=O)=O)cc2)c(C)s1", "Potency": "inconclusive [inhibitor, single point]"},
      {"smiles": "COc1ccc(/C=N/n2cc(-c3ccc(OC)cc3)nc2N)cc1", "Potency": "inconclusive [inhibitor, single point]"},
      {"smiles": "Oc1ccc(/C=N/N(c2ccccc2)c2ccccc2)cc1O", "Potency": "inconclusive [inhibitor, single point]"},
      {"smiles": "O=C1C(=O)N(CCOCCO)C(c2ccccn2)/C1=C(\\O)c1ccccc1", "note": "(centres undefined)", "Potency": "inconclusive [inhibitor, single point]"},
      {"smiles": "Fc1ccc(/C=C2\\CCCC3=C2Nc2ncnn2C3c2ccc(F)cc2)cc1", "note": "(centres undefined)", "Potency": "active: 13.1 µM"},
      {"smiles": "CSCC[C@H](N)C(=O)N1CCC(C(=O)N[C@H](C)C(=O)NC(C)c2ccccc2)CC1", "note": "(some centres undefined)", "Potency": "inconclusive [inhibitor, single point]"},
      {"smiles": "COc1ccc(/C=N/NC(=O)c2ccc3c(c2)OCO3)cc1", "activity change, negative = inhibition": "inactive: -15.2% [at 0.00184 µM]"},
      {"smiles": "CCN(CC)CCCNC(=O)c1cn(-c2cccc(OC)c2)c(=O)c2ccccc12", "Potency": "inactive"},
      {"smiles": "Cc1ccc(NC2CCCN(C(=O)c3snnc3C)C2)cc1C", "note": "(centres undefined)", "Potency": "inconclusive [inhibitor, single point]"},
      {"smiles": "O=C(OCc1ccc(O)cc1)c1c(-c2ccsc2)oc2ccc(N3CCOCC3)cc12", "Potency": "inconclusive [inhibitor, partial curve, poor fit]"},
      {"smiles": "NNC(=O)Cn1nnc(-c2ccc(C(F)(F)F)cc2)n1", "Potency": "inactive"},
      {"smiles": "COc1ccccc1C(=O)NCCSCc1c(F)cccc1Cl", "Potency": "inconclusive [inhibitor, single point]"},
      {"smiles": "Cc1cc(Nc2ccc(Cl)cc2)n2ncnc2n1", "Potency": "inconclusive [inhibitor, partial curve]"},
      {"smiles": "COc1cccc(C2C3=C(CC(C)(C)CC3=O)Nc3cc(OC)c(OC)cc32)c1", "note": "(centres undefined)", "Potency": "inconclusive [inhibitor, partial curve, poor fit]"},
      {"smiles": "O=C1CCCC2=C1C(c1ccco1)Nc1ccc3ccccc3c12", "note": "(centres undefined)", "Potency": "inconclusive [inhibitor, partial curve, poor fit]"},
      {"smiles": "O=C(OCC(=O)N1CCCC1)c1cncc(Br)c1", "Potency": "inactive"},
      {"smiles": "COCCCNC(=S)NNC(=O)c1cc(-c2ccncc2)nc2ccccc12", "Potency": "inactive"},
      {"smiles": "CC(C(=O)N(C)C1CCS(=O)(=O)C1)N1C(=O)/C(=C/c2ccc(F)cc2)SC1=S", "note": "(centres undefined)", "Potency": "active: 13.1 µM"},
      {"smiles": "CC(C)N(CC#CCC1(O)c2ccccc2-c2ccccc21)CCO", "Potency": "inconclusive [inhibitor, single point]"},
      {"smiles": "CCN(CC)CCCOC(=O)C(c1ccccc1)c1ccccc1", "Potency": "inconclusive [inhibitor, single point]"},
      {"smiles": "COc1ccc(/C=C/C(=O)OCC(=O)c2c(C)[nH]c3ccccc23)cc1OC", "Potency": "inconclusive [inhibitor, partial curve]"},
      {"smiles": "Cc1cccc(N(C(=O)c2snc(C(N)=O)c2N)C(C(=O)NCC2CCCO2)c2cccs2)c1", "note": "(centres undefined)", "Potency": "inconclusive [inhibitor, partial curve, poor fit]"},
      {"smiles": "O=C(c1cccc(F)c1)N1CCN(C(=O)c2cc3nc(-c4ccco4)cc(C(F)(F)F)n3n2)CC1", "Potency": "inconclusive [inhibitor, single point]"},
      {"smiles": "O=C(/C=C/c1ccccc1)NCCCNC(=O)/C=C/c1ccccc1", "Potency": "inconclusive [inhibitor, single point]"},
      {"smiles": "COCCNc1c(-c2ccc(OC)c(OC)c2)nc2ccc(Cl)cn12", "Potency": "inconclusive [inhibitor, single point]"},
      {"smiles": "O=C(O)c1ccccc1OP(=O)(O)O", "Potency": "inconclusive [inhibitor, partial curve]"},
      {"smiles": "Cc1ccc(CNC(=O)C2CC(=O)N(C3CCCCCC3)C2)cc1", "note": "(centres undefined)", "Potency": "inconclusive [inhibitor, partial curve]"},
      {"smiles": "Cc1cc(C)c2nc(C)cc(Nc3ccc(C(=O)N(C)C)cc3)c2c1", "Potency": "inconclusive [inhibitor, full curve, poor fit]"},
      {"smiles": "Cc1ccc(C)c(S(=O)(=O)c2c(N)n(/N=C/c3ccco3)c3nc4ccccc4nc23)c1", "Potency": "active: 10.4 µM"},
      {"smiles": "O=C(NC1CCCCC1)C(c1ccncc1)N(Cc1ccccc1)C(=O)c1ccc(-c2ccccc2)[nH]1", "note": "(centres undefined)", "Potency": "inconclusive [inhibitor, full curve, poor fit]"},
      {"smiles": "COC(=O)c1ccc(C2c3[nH]c4ccccc4c3C[C@H]3C(=O)N(C)CC(=O)N23)cc1", "note": "(some centres undefined)", "Potency": "inconclusive [inhibitor, partial curve]"},
      {"smiles": "CCCCNC(=O)c1cc2cccc([N+](=O)[O-])c2[nH]1", "Potency": "active: 2.62 µM"},
      {"smiles": "c1cc(CCCc2ccncc2)ccn1", "Potency": "inactive"},
      {"smiles": "Cc1cc(=O)c2cc(Br)ccc2[nH]1", "Potency": "inconclusive [inhibitor, single point]"},
      {"smiles": "CC(=O)N1c2ccc(S(=O)(=O)N3CCCCC3)cc2CC1C", "note": "(centres undefined)", "Potency": "inconclusive [inhibitor, single point]"},
      {"smiles": "COc1ccccc1-n1c(=S)sc2c(=O)n(Cc3ccco3)c(SC)nc21", "Potency": "inconclusive [inhibitor, partial curve, poor fit]"},
      {"smiles": "COC(=O)c1ccc(NN=Nc2ccc(C)cc2)cc1", "Potency": "inactive"},
      {"smiles": "Cc1c(C(=O)N2CCC(C)CC2)sc2ncnc(N(C)c3ccccc3)c12", "Potency": "inconclusive [inhibitor, single point]"},
      {"smiles": "Cc1ccc(C2CC(c3cccs3)=NN2C(=O)CSc2nc(=O)n3ccc(C)cc3n2)cc1", "note": "(centres undefined)", "Potency": "active: 8.28 µM"},
      {"smiles": "CSc1ccccc1N=Cc1nc(-c2ccccc2)oc1O", "Potency": "inactive"}
    ]}
  ]
}
